According to US20240392013A1, “IL1RAP ANTIBODIES AND USES THEREOF” (STELEXIS THERAPEUTICS, LLC, priority 2021, published 2024):

T1: hIL1RAP (Homo sapiens, UniProt Q9NPH3)
T1 sequence (Q9NPH3 21-367 limits assumed): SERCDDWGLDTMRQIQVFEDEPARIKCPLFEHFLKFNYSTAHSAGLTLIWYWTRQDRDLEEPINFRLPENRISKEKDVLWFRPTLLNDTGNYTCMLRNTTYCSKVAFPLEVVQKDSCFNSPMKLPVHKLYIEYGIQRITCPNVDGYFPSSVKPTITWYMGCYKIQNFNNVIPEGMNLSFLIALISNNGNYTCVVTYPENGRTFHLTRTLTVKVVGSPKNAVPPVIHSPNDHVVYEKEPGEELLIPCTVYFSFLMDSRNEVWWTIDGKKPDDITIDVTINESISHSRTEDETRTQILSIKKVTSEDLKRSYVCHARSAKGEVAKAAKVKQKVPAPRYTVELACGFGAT


What was measured:
[1] = test system: IL33-induced NFκB activity; test: HEK-BlueIL33 NFκB Reporter Assay; assay type: cell-based, human; conditions: nM range, read-out: IC50, inhibition of IL33-induced NFκB activity
From the text: HEK-Blue IL33 (Invivogen, Cat #hkb-hil33) cell line was used to monitor NFκB activity upon stimulation with IL33 cytokine. The secreted embryonic alkaline phosphatase reporter gene (SEAP) is inducible expressed under the control of IFN-β minimal promoter fused to NFκB/AP-1. HEK-BlueIL33 cells were also generated upon stable transfection with human IL1RL1 (ST2) gene. Specificity to IL33 cytokine was achieved by blockage of TNF-α and IL1 response. Cells are maintained in the presence of hygromycin (200 μg/ml), zeocin (100 μg/ml) and blasticidin (10 μg/ml).
(§1) For the functional assay, cells were plated at a density of 5×10^4 cells/well in 96-well plates. Cells were treated with each antibody at the highest concentration of 200 μg/ml followed by seven serial 1:3 dilutions and incubated for 45 minutes at 37° C./5% CO^2 in humified incubator. Cells were then stimulated with IL33 (12 μM) and incubated overnight at 37° C./5% CO2 in humified incubator. Every treatment was conducted in triplicates. Following, supernatants from each well were mixed with Quanti-Blue substrate (Invivogen, Cat #rep-qb1) according to manufacturer's recommendations and secreted SEAP was measured using spectrophotometer at 650 nm.

[2] = test system: IL1-induced NFκB activity; test: HEK-BlueIL1β NFκB Reporter Assay; assay type: cell-based; conditions: nM range, read-out: IC50, inhibition of IL1-induced NFκB activity
Protocol: The HEK-Blue IL1β (Invivogen, Cat #hkb-il1b) cell line was used to monitor NFκB activity upon stimulation with IL1β cytokine. In this cell line the secreted embryonic alkaline phosphatase reporter gene (SEAP) is inducibly expressed under the control of IFN-β minimal promoter fused to NFκB/AP-1. Specificity to IL1β cytokine was achieved by blockage of TNF-α response. The cells were maintained in the presence of hygromycin (200 μg/ml) and zeocin (100 μg/ml).
as §1, with “CO2” for “CO^2”, “IL1β” for “IL33”, “(Invivogen, CA USA;” for “(Invivogen,”

hIL1RAP = molecular target: T1, hIL1RAP; test: Kinetics of IL1RAP mAbs by Octet, human IL1RAP; assay type: binding; parameters: extracellular domain His-tagged, Cat #10121-H08H; His; purchased Sino Biological lot MB08MA1301 (catalogue number not given)
Protocol: (§2) Antibodies were diluted in kinetics buffer (0.1% BSA, 0.02% Tween-20 and 0.05% NaN3 in PBS) and loaded onto 16 channel anti-mouse IgG Fc capture sensors (AMC, Cat #2001073; Sartorius, Göttingen, Germany). Human, huIL1RAP-His (Sino Biological, lot: MB08MA1301), and monkey, cyIL1RAP-His (Lake Pharma, NY, USA; lot:16205819371) proteins were titrated starting from the highest concentration of 100 nM and followed by 50 nM and 25 nM. Purified antibodies were loaded at 5 μg/ml in kinetics buffer. The experimental parameters selected to determine the kinetic constants were Baseline for 60 s, Loading of antibody to sensor for 180 s, Association of analyte to antibody for 120 s, Dissociation for 1200 s and Regeneration in 10 mM Glycine pH 1.7 for 4×30 s.
(§3) Regeneration cycle tracking was selected for 12 cycles. Binding to human and cynomolgus IL1RAP was measured and KD (M) kinetics were calculated. Also, the disassociation rate (Kdis) (1/s) and association rate (Kon) (1/Ms) kinetics were calculated (data not shown).

cyIL1RAP = test: Kinetics of IL1RAP mAbs by Octet, cynomolgus IL1RAP; assay type: binding
Protocol: as §2, §3

Row | IC50 [1] | IC50 [2] | hIL1RAP kdis(1/s) (hIL1RAP) | hIL1RAP kon(1/Ms) (hIL1RAP) | Molecule | cyIL1RAP kdis(1/s) (cyIL1RAP) | cyIL1RAP kon(1/Ms) (cyIL1RAP)
1 | 3.54 nM | 0.532 nM | 0.000478 s⁻¹ | 218200 M⁻¹ s⁻¹ | 74804_21D11A: anti-IL1RAP mAb; VH SEQ ID NO:12, VL SEQ ID NO:28, λ light chain (antibody, V domains shown, 74804_21D11A VH; 74804_21D11A VL) VH: EVQVVESGGGLVKPGGSLRLSCAASGFIFSKAWMSWVRQAPGKGLEWVGRIKSKTDGGTTDYAAPVKGRFTISRDDSKNTLYLQMNSLKTEDTAVYYCTTGGYVFDYWGQGALVTVSS VL: QSVLTQPPSASGTPGQRVTISCSGNNSNIGSYIVNWFQQLPGTAPKLLIYSKNQRPSGVPDRFSGSKSGTSASLAISGLQSEDEADYYCAAWDDSLNGVVFGGGTKLTVL | 0.002591 s⁻¹ | 254500 M⁻¹ s⁻¹
2 | 8.12 nM | 0.792 nM | 0.000684 s⁻¹ | 558300 M⁻¹ s⁻¹ | 74804_44J14A: anti-IL1RAP mAb; VH SEQ ID NO:15, VL SEQ ID NO:31, λ light chain (antibody, V domains shown, 74804_44J14A VH; 74804_44J14A VL) VH: QVQLQESGPGLVKPSETLSLTCTVSGGSVFSYFWNWIRQPPVKGLEWIGYIDHSGGTNYNPSLKSRVTMSVDTSKNQFSLKLSSVTAADTAVYYCAREGLHDAFDIWGQGTLVTVSS VL: QSVLTQPPSASGTPGQRVTISCSGSSSNIGSNTVNWYQLLPGTAPKLLIYSNYQRPSGVPDRFSGSKSGTSASLAISGLQSEDEADYYCAAWDDSLNGRVFGGGTKLTVL | 0.002061 s⁻¹ | 1226000 M⁻¹ s⁻¹
3 | 12.4 nM | 2.31 nM | 0.000359 s⁻¹ | 160500 M⁻¹ s⁻¹ | 74804_30O16A: anti-IL1RAP mAb; VH SEQ ID NO:2, VL SEQ ID NO:19, κ light chain (antibody, V domains shown, 74804_30O16A VH; 74804_30O16A VL) VH: QVQLVQSGAEVKRPGASVKVSCKASGYTFTGYYMHWVRQAPGQGLEWMGWINPYSGGTDYAQKFQDRVTMTRDTSISTAYMELSRLRSDDTAVYYCARSYYYYGMDVWGQGITVTVSS VL: DIVMTQSPDSLAVSLGERATINCKSSQNIINSSTNKNYLAWYKQKPGQPPKLLIYWASTRESGVPDRFSGSGSGTDFTLTISSLQAEDVAVYYCQQYYSTPFTFGGGTKVEIK | 0.000369 s⁻¹ | 142700 M⁻¹ s⁻¹
4 | 11 nM | 2 nM | 0.000272 s⁻¹ | 165700 M⁻¹ s⁻¹ | 74804_09H05A: anti-IL1RAP mAb; VH SEQ ID NO:3, VL SEQ ID NO:20, κ light chain (antibody, V domains shown, 74804_09H05A VH; 74804_09H05A VL) VH: QVQLFQSGAEVKKPGASVKVSCKASGYTFTGYYVHWVRQAPGQGLEWMGWINPNSGGTDYAQKFQGRVTMTWDTSISTAYMELSRLRSDDTAVYYCARSYYYYGMDVWGQGTTVTVSS VL: DIVMTQSPDSLAVSLGERATINCKSSQSVLYSSNNTSYLAWYQQKPGQPPKFLIYWTSTRESGVPDRFSGSGSGTDFTLTISSLQAEDVAVYYCQQYYITPFTFGPGTKVDIK | 0.000408 s⁻¹ | 141800 M⁻¹ s⁻¹
5 | 17 nM | 1.72 nM | 0.000233 s⁻¹ | 289800 M⁻¹ s⁻¹ | 74804_01N02A: anti-IL1RAP mAb; VH SEQ ID NO:16, VL SEQ ID NO:18, κ light chain (antibody, V domains shown, 74804_01N02A VH; 74804_01E23A VL and 74804_01N02A VL) VH: EVQLVQSGAEVKKPGESLKISCKGSGYSFTSYWIVWVRQMPGKGLEWMGFIYPGNSDTRYSPSFQGQVTISADQSISTAYLQWSSLKASDTATYYCARGGSYYLDYWGQGTLVTVSS VL: DIVMTQSPDSLAVSLGERATIYCKSSQSVLINSNNQNYLAWYQQKPGQPPKLLIQWASTRESGVPDRFSGSGSGTDFTLTISSLQAEDVAVYYCQQYYNSPFTFGGGTKVEIK | 0.000413 s⁻¹ | 334300 M⁻¹ s⁻¹
6 | 2.49 nM | 0.737 nM | 0.000391 s⁻¹ | 167100 M⁻¹ s⁻¹ | 74804_01E23A: anti-IL1RAP mAb; VH SEQ ID NO:1, VL SEQ ID NO:18, κ light chain (antibody, V domains shown, 74804_01E23A VH; 74804_01E23A VL and 74804_01N02A VL) VH: QVQLVQSGAEVKKPGASVKVSCKASGYTFTGYYMHWVRQAPGQGLEWMGWLNPNSGGTDYVQKFQGRVTMTRDTSISTAYMELSRLRSDDTAVYYCARTLYYYGMDVWGQGTTVTVSS VL: DIVMTQSPDSLAVSLGERATIYCKSSQSVLINSNNQNYLAWYQQKPGQPPKLLIQWASTRESGVPDRFSGSGSGTDFTLTISSLQAEDVAVYYCQQYYNSPFTFGGGTKVEIK | 0.000863 s⁻¹ | 190100 M⁻¹ s⁻¹
